Assay results published in paper PMC10725492 (2023).

Target: SARS-CoV-2 spike (S) protein, recombinant (ACROBiosystems, Catalog#SPN-C52H9) (SARS-CoV-2)
Assay: SPR

B1: recombinant APP N-terminal ([…]) fragment (domain or fragment)
chain: not shown
In the case of B1, the koff is reported as 0.00234 s⁻¹.
